According to PubChem BioAssay AID485281 (National Center for Advancing Translational Sciences (NCATS), 2010):
Where “and” joins values, the source holds several entries; their conditions need not be identical. Identical values can stand only once. About 260 (0.074%) of roughly 350,000 compounds were called active. The shares of active, inactive and inconclusive entries below differ from those in the screen. The call rests on the fitted dose curve; in most records, active means well fitted inhibition curve with a large enough effect; inconclusive means small, poorly fitted or top-dose-only effect; inactive means no such curve, though single readings can be large or run the other way. Potencies beside an inconclusive call are fits to weak or partial responses and may not hold up.

What follows are compounds tested against Ferritin light chain (Equus caballus) (UniProt P02791) (assay: qHTS Assay for Identification of Novel General Anesthetics). Settings: apoferritin/1-aminoanthracene competitive binding, fluorescence; series mostly up to 77.5 µM.
UniProt P02791, sequence (P02791 whole entry, looked up): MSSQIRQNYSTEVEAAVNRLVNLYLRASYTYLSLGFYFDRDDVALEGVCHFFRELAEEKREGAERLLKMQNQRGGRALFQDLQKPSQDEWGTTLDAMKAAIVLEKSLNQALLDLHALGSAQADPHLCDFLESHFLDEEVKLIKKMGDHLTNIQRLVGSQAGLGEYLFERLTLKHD
Method in brief: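 Concentration-response curves derived by four-parameter Hill fitting of normalized fluorescence, where compounds displaced 1-AMA from 10 uM horse apoferritin following a brief 10 min room-temperature incubation; propofol titration acted as positive control.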
Further: nearly all actives have a fitted effect of over 20% in size.
Potency means the concentration at half of the fitted maximal effect; tags describe the fitted curve by direction and shape.

Potency, active:
Cc1cc([N+](=O)[O-])cnc1NC(C)c1ccccc1 (stereo unspecified) 8.91 µM

Potency, inconclusive:
Cc1c(C(=O)Nc2ccc(Oc3ccccc3)cc2)sc2nc3n(c(=O)c12)CCC3 12.6 µM [inhibitor, partial curve]
COc1ccccc1-c1cc(C(=O)N2CCCc3ccccc32)no1 12.6 µM [inhibitor, partial curve]
COc1cc2c(cc1NC(=O)c1ccncc1)oc1ccccc12 44.7 µM [inhibitor, partial curve, poor fit]
Cc1cc2ncn(-c3nnnn3-c3ccccc3)c2cc1C 56.2 µM [inhibitor, single point]
CC(C)Sc1nc2ccc(Br)cc2[nH]1 35.5 µM [inhibitor, partial curve]
O=C1N2CCCc3cccc(c32)C12Nc1ccccc1S2 (stereo unspecified) 39.8 µM [inhibitor, single point]
CC1CC(=O)N(c2ccc(NCCc3ccccc3)c([N+](=O)[O-])c2)C1=O (stereo unspecified) 17.8 µM [inhibitor, partial curve]
CCc1ccc(-c2nc(SCC(=O)NC3CCCC3)n[nH]2)cc1 28.2 µM [inhibitor, partial curve]
C=CCSc1nnc(CSc2nc3sc4c(c3c(=O)[nH]2)CCCC4)n1-c1ccccc1 20 µM [inhibitor, partial curve]
O=C(Nc1cccc(O)c1)c1ccc(C(=O)c2ccccc2)o1 35.5 µM [inhibitor, single point]
CCOC(=O)c1c(C)[nH]c(C(=O)COC(=O)CCC(=O)c2ccc3c(c2)OCCO3)c1C 39.8 µM [inhibitor, single point]
C[C@@H]1C(NC(=O)c2ccccc2)CC2CC1C2(C)C (stereo partly specified) 14.1 µM [inhibitor, partial curve]
CCN(CC)S(=O)(=O)c1cccc(NC(=O)c2ccc(C#N)cc2)c1 17.8 µM [inhibitor, partial curve]
Cc1ccc(OCCCC(=O)NC2CCCCC2)cc1 31.6 µM [inhibitor, partial curve]
CC(C)(C)c1nn(-c2ccccc2)c2[nH]c(=O)c(CNCc3ccco3)cc12 31.6 µM [inhibitor, partial curve]
Cc1ccc(-c2cccc(NC(=O)C3C4C=CC(C4)C3C(=O)O)c2)o1 (stereo unspecified) 50.1 µM [inhibitor, single point]
CO/N=C(\Cn1ncc(N2CCCC2)c(Cl)c1=O)c1ccc(Cl)cc1 31.6 µM [inhibitor, partial curve]
O=S(=O)(c1cccc2nsnc12)N1CCN(C/C=C\c2ccccc2)CC1 39.8 µM [inhibitor, partial curve]
COc1ccc(OC(=O)CN2C(=O)C3C4CCC(C4)C3C2=O)cc1 (stereo unspecified) 31.6 µM [inhibitor, single point]
COc1ccc(-c2cc(C(=O)NCCc3ccc(OC)c(OC)c3)c3c(-c4ccc(F)cc4)[nH]nc3n2)cc1 6.31 µM [inhibitor, full curve, poor fit]
CC1(C(=O)OCC(=O)NC(=O)NCc2ccccc2)CC1(Cl)Cl (stereo unspecified) 28.2 µM [inhibitor, partial curve]
CC(C)(C)Sc1ccc(N)nc1 20 µM [inhibitor, partial curve]
CCCNC(=O)N1[C@H](c2cccs2)[C@@H](C)C(=O)[C@@H](C)[C@@H]1c1cccs1 44.7 µM [inhibitor, partial curve]
O=C(CNC(=O)c1cccc(F)c1)N/N=C/c1ccc([N+](=O)[O-])s1 3.55 µM [inhibitor, full curve]
CN(CC(=O)Nc1cc([N+](=O)[O-])ccc1Cl)Cc1ccc(Br)cc1 35.5 µM [inhibitor, single point]
CCOC(=O)Cc1c(C(=O)OCC)nnc2c(-c3ccccc3)c(C)nn12 28.2 µM [inhibitor, partial curve]
O=C(CC1NCCc2ccccc21)Nc1ccc(Oc2ccccc2)cc1 (stereo unspecified) 25.1 µM [inhibitor, single point]
CC1CCc2c(c3ccccc3n2C(=O)CCl)C1 (stereo unspecified) 35.5 µM [inhibitor, partial curve]
CCOc1ccccc1OCc1nn2c(-c3ccc(C)cc3)nnc2s1 28.2 µM [inhibitor, single point]
O=C(O)c1c(Cl)c(Cl)c(Cl)c(Cl)c1-c1c2cc(I)c(=O)c(I)c-2oc2c(I)c(O)c(I)cc12 31.6 µM [inhibitor, partial curve] and 25.1 µM [inhibitor, partial curve]
O=C1c2ccccc2C(=O)N1CCN1CCc2ccccc21 50.1 µM [inhibitor, partial curve, poor fit]
CC(C)CSC1=NSC2=NC(=O)/C(=C\c3coc4ccccc4c3=O)C(=N)N12 31.6 µM [inhibitor, partial curve]
CCn1c(SCC(=O)N(C(C)C)C(C)C)nnc1-c1cc2ccccc2cc1O 17.8 µM [inhibitor, partial curve]
O=C(CCCOc1ccc(Cl)cc1Cl)N/N=C/c1ccco1 20 µM [inhibitor, partial curve]
CCCCc1ccc(N2C(=O)[C@@H]3C(CC(N)=O)NC4(C(=O)Nc5ccc(F)cc54)[C@@H]3C2=O)cc1 (stereo partly specified) 35.5 µM [inhibitor, single point]
COc1cc(OC)c2c(-c3ccccc3)cc(=O)oc2c1C(CC(=O)N1CCOCC1)c1ccc(N(C)C)cc1 (stereo unspecified) 39.8 µM [inhibitor, partial curve]
Cc1cccc(NC(=S)N2CCCCCC2)c1 17.8 µM [inhibitor, partial curve, poor fit]
Cc1cc(N=Nc2ccc3ccccc3c2)ccc1O 31.6 µM [inhibitor, partial curve]
O=C(CSc1nnc(CNC(=O)c2ccc(F)cc2)o1)c1ccccc1 28.2 µM [inhibitor, partial curve]
CSc1nc(SCCO)c2sc3nc(-c4ccco4)c4c(c3c2n1)CC(C)(C)OC4 31.6 µM [inhibitor, partial curve]
Cc1ccc(-c2ccc(=O)n(CC(=O)NCC3COCCO3)n2)cc1 (stereo unspecified) 14.1 µM [inhibitor, partial curve]
Cc1[nH]c2ccccc2c1NC(=O)CN1CCN(c2cccc(C(F)(F)F)c2)CC1 20 µM [inhibitor, partial curve]
CC1CCN(c2ccc(S(=O)(=O)NC3=NCCCCC3)cc2[N+](=O)[O-])CC1 39.8 µM [inhibitor, partial curve]
Cc1[nH]nc(Nc2ccccc2)c1[N+](=O)[O-] 28.2 µM [inhibitor, partial curve]
Cc1cc(-c2ccccc2)c2c(=O)n(-c3ccccc3)[nH]c2n1 28.2 µM [inhibitor, single point]
CC(C)c1ccc(OC(=O)NCCO)cc1 14.1 µM [inhibitor, partial curve]
COC(=O)CC(=O)CSc1nc2cc(C(=O)NCC(C)C)ccc2c(=O)n1CCc1ccccc1 1.78 µM [inhibitor, full curve]
CCOC(=O)c1cccc(NC(=O)CN(c2ccc(C)cc2)S(=O)(=O)c2c(C)noc2C)c1 3.55 µM [inhibitor, partial curve]
CCn1c(SCc2nc(-c3ccccc3)no2)nnc1-c1cccs1 39.8 µM [inhibitor, partial curve]

Potency, inactive:
COc1cccc(C2Nc3ccccc3C(=O)N2c2ccc(F)cc2)c1O (stereo unspecified)
COc1ccc(Cl)cc1NC(=O)CSc1nc2c(oc3ccccc32)c(=O)n1Cc1ccco1
Cn1c(=O)c2c(nc(CN3CCN(c4ccccc4F)CC3)n2Cc2ccc(F)cc2)n(C)c1=O
CCOc1ccc(NC(=O)c2cnccn2)cc1
Cc1cccc(NC(=O)CSc2nc3n[nH]c(C)c3c(=N)n2-c2cccc(Cl)c2)c1
CCn1c(C)nc2cc(C(=O)N/N=C/c3ccc(O)c(O)c3O)ccc21
N#Cc1c(N2CCN(C(=O)c3ccco3)CC2)nc(-c2ccccc2)c2c1CCCC2
CNC(=O)c1ccccc1NC(=O)c1ccc(C)c(S(=O)(=O)N2CCCCC2)c1
CCN(CC)C(=O)Cn1c(=O)n(CCc2ccccc2)c(=O)c2ccccc21
Cc1ccc(Cl)cc1NC(=O)Cn1c(=O)n(C(C)C)c(=O)c2oc3ccccc3c21
COC(=O)Cc1cc(=O)n2[nH]cnc2n1
Nc1cc(Nc2ccccc2)c2nonc2c1[N+](=O)[O-]
COc1ccc(N2CCN(CCC(O)c3ccc4ccccc4c3)CC2)cc1 (stereo unspecified)
CC1CCN(S(=O)(=O)c2ccc3c(c2)CCN3C(=O)Nc2ccc(Br)cc2F)CC1
COC(=O)c1cn(CC(=O)N2C(C)CCCC2C)c2ccccc12 (stereo unspecified)
COc1cccc(CN(CC(=O)NC2CCCCC2)C(=O)c2csnn2)c1
